About 2,300 (1%) of roughly 220,000 compounds were called active. The inconclusive results got no clear call from the source; some entries with a clear call stand among them for comparison. Calls follow the shape of the dose curve; as a rule, active = well fitted inhibition curve with a large enough effect; inconclusive = small, poorly fitted or top-dose-only effect, or effect the other way; inactive = no such curve, though single readings can be large or run the other way. Potencies of inconclusive entries are left out as doubtful fits.
Target: Neuropeptide S receptor (Homo sapiens) (UniProt Q6W5P4)
Assay: qHTS Assay for Antagonists of the Neuropeptide S Receptor: cAMP Signal Transduction; also: nearly all actives have a fitted effect of over 50% in size
Conditions: CHO-NPSR cells, cAMP TR-FRET, antagonist mode; activity change, negative = inhibition: at 38.3 µM (top of the series) unless noted
% is scaled to controls: 0 for no effect and ±100 for the full control effect; potency is read from the fitted curve at half-maximal effect; tags tell the direction and shape of the fitted curve.

Chain of UniProt Q6W5P4 (Q6W5P4 whole entry, looked up): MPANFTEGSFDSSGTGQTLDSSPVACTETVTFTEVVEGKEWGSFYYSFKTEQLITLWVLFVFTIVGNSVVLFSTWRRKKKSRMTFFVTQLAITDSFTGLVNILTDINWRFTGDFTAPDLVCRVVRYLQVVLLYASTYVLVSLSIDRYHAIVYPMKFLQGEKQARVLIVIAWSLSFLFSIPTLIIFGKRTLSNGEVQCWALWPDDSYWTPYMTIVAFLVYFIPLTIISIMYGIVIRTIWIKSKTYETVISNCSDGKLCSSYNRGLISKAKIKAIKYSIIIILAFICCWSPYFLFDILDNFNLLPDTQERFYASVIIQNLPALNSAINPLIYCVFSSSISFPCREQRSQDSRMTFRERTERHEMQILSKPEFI

SMILES | activity change, negative = inhibition | Potency
CCC(=O)Nc1cccc(NC(=S)NC(=O)c2ccccc2)c1 | inactive: 5.47% | 
CC(NC(=O)Nc1nnc(C(F)(F)F)s1)(C(F)(F)F)C(F)(F)F |  | active: 10 µM
Cc1ccc(N=N/C(=C\O)C(=O)c2ccncc2)cc1 |  | active: 10 µM
Cc1noc(C)c1CSc1nnc(-c2cc(Cl)ccc2Cl)n1N |  | inconclusive [inhibitor, partial curve, poor fit]
O=C(COC(=O)c1ccc([N+](=O)[O-])s1)Nc1ncc(C(F)(F)F)cc1Cl | inactive: 1.6% | 
COC(=O)c1sccc1-c1ccc(/C=N/OC(=O)c2ccccc2)o1 |  | inconclusive [inhibitor, partial curve]
CN(C)c1ccc(C2=NOC(CN3C(=O)c4ccccc4S3(=O)=O)C2)cc1 (stereo not given) |  | inconclusive [inhibitor, partial curve]
COc1ccccc1Nc1nc(N)nc(-c2oc3ccccc3c2C)n1 |  | inconclusive [activator, single point]
Cc1cccc(Cn2c(SCC(=O)Nc3ccccc3)nc3c2c(=O)[nH]c(=O)n3C)c1 | inactive: -14.2% [at 46.1 µM] | 
CCOC(=O)c1sc(=NC(=O)c2cccc(OC)c2)n(C)c1C |  | active: 10 µM
CCOc1ccccc1NC(=O)c1ccccc1-c1nc(-c2ccccc2OC)no1 |  | inconclusive [inhibitor, single point]
CCN(CC)CCOc1ccc(/C(=C(/Cl)c2ccccc2)c2ccccc2)cc1 |  | active: 10 µM
Cn1nccc1C(=O)Oc1ccc(/C=N/NC(=O)c2ccccc2O)cc1 | inactive: -11.6% | 
C/C(=N\OC(=O)NC1CCCCC1)c1sc(-c2ccccc2)nc1C |  | inconclusive [inhibitor, partial curve]
CCOC(=O)c1c(C)oc(NC(=O)CCl)c1C(=O)OCC | inactive: -6.82% | 
CCCC1CCc2c(sc(NC(=O)c3cccs3)c2C(N)=O)C1 (stereo not given) |  | inconclusive [inhibitor, single point]
FC(F)(F)c1cnc(N2CCN(C(=S)NCc3ccccc3)CC2)c(Cl)c1 | inactive: 49.8% | 
COc1ccc(NC(=S)Nc2ccccn2)cc1 |  | inconclusive [inhibitor, single point]
Cc1ccc(C(=O)Nc2ccc(Br)c(C(F)(F)F)c2)cc1 |  | inconclusive [inhibitor, single point]
COCCCn1c(SCc2nnc(-c3ccccc3)o2)nc2sc3c(c2c1=O)CCC3 |  | inconclusive [inhibitor, single point]
Cc1ccc(CC2SC(=O)NC2=O)cc1Cl (stereo not given) |  | inconclusive [inhibitor, single point]
CCOP(=O)(c1ccccc1)c1nc(-c2ccccc2Cl)oc1N1CCCCC1 (stereo not given) |  | inconclusive [inhibitor, single point]
COc1ccc(CCNc2oc(COc3ccc(F)cc3)nc2C#N)cc1 |  | inconclusive [inhibitor, single point]
CCC(C)N1C(=O)S/C(=C/c2ccc3c(c2)n(C)c(=O)n3C)C1=O (stereo not given) | inactive: 5.87% | 

SMILES | activity change, negative = inhibition | Potency
CCCc1cc2c(c(NC(C)=O)n1)c(=O)oc1ccccc12 |  | inconclusive [activator, single point]
Cc1sc2ncn(CC(=O)NCc3ccccn3)c(=O)c2c1S(=O)(=O)N1CCOCC1 | inactive: 5.56% [at 46.1 µM] | 
Cc1cccc(NC(=O)C2CCCN(S(=O)(=O)c3cccc4nsnc34)C2)c1 (stereo not given) |  | inconclusive [inhibitor, single point]
COC(=O)c1ccc(NC(=S)Nc2ccccc2)cc1 | inactive: 5.55% [at 46.1 µM] | 
COc1cc(-c2nc(-c3ccc4c(c3)-c3ccccc3S4(=O)=O)c(-c3ccccc3)[nH]2)cc(OC)c1OC | inactive: -14.3% [at 46.1 µM] | 
Cc1ccc(NC(=O)c2c(C)nc3sc(C(=O)NC4CCCC4)c(N)c3c2-c2ccco2)c(C)c1 | inactive: -32% | 
COc1ccccc1C1CC(c2c(-c3ccccc3)c3cc(Cl)ccc3[nH]c2=O)=NN1S(C)(=O)=O (stereo not given) |  | inconclusive [inhibitor, partial curve, poor fit]
Cc1ccc(-n2nc(-c3cccs3)cc2C(=O)NCC2CCCO2)c(C)c1 (stereo not given) |  | inconclusive [inhibitor, single point]
CCCCCC(=O)NC(=S)NC1C2CC3CC(C2)CC1C3 (stereo not given) |  | inconclusive [inhibitor, single point]
Clc1ccc(OCCn2cnc(Cl)c2Cl)cc1 |  | inconclusive [inhibitor, single point]
CCC1CCCCN1Cc1nc2c(c(=O)n(C)c(=O)n2C)n1CCCc1ccccc1 (stereo not given) |  | inconclusive [inhibitor, single point]
Cc1ccc2cc(C(c3nnnn3C3CCCC3)N(Cc3ccccc3)Cc3ccco3)c(=O)[nH]c2c1 (stereo not given) |  | inconclusive [inhibitor, partial curve]
Cc1nc(Nc2ccc(C(=O)O)cc2)nc(Nc2ccc(C(=O)O)cc2)c1[N+](=O)[O-] | inactive: 17.7% | 
CC(=O)c1cccc(NC(=O)c2cc3nc(C)cc(C)n3n2)c1 |  | inconclusive [inhibitor, single point]
Cc1ccccc1OCC(=O)Nc1ccc2c(c1)C(=O)c1ccccc1C2=O |  | inconclusive [inhibitor, single point]
N.N.N.N.N.N.N.N.N.N.N.N.N.N.O.O.[Cl-].[Cl-].[Cl-].[Cl-].[Cl-].[Cl-].[Ru].[Ru].[Ru] |  | inconclusive [inhibitor, partial curve]
COc1ccc(OC)c(NC(=O)c2ccc3c(=O)n(CCc4ccccc4)c(=S)[nH]c3c2)c1 | inactive: -27.4% | 
CCOC(=O)c1c(NC(=O)Cc2cccs2)sc(C(=O)NC2CCCCC2)c1C |  | inconclusive [inhibitor, single point]
CCCNC(=O)COC(=O)c1ccccc1C(=O)c1ccc(Cl)c([N+](=O)[O-])c1 |  | inconclusive [inhibitor, single point]
CCCOc1ccc(N2CC(C(=O)NCCc3ccc(OC)c(OC)c3)CC2=O)cc1 (stereo not given) |  | inconclusive [activator, single point]
c1ccc2c(c1)ncn2-c1ccc(-c2ccnc(-c3ccncc3)n2)cc1 |  | inconclusive [inhibitor, partial curve]
Cc1c(Cl)cccc1NC(CC(=O)c1ccccc1)C(=O)OCC(=O)c1cccs1 (stereo not given) | inactive: -15.5% [at 46.1 µM] | 
C#CC(=O)N(c1cccc(OC)c1)C(C(=O)NC1CCCC1)c1cccs1 (stereo not given) |  | active: 3.98 µM
COC(=O)C1=C(C)N(C)C(=O)NC1c1cc2c(cc1[N+](=O)[O-])OCO2 (stereo not given) | inactive: -1.57% | 

SMILES | activity change, negative = inhibition | Potency
Cc1cccc(Oc2c(C=O)c3ccccc3n2C)c1 |  | inconclusive [inhibitor, partial curve, poor fit]
COc1ccccc1C1c2[nH]c3ccccc3c2CCN1Cc1cnc(C)s1 (stereo not given) |  | inconclusive [inhibitor, single point]
O=c1oc(-c2ccc([N+](=O)[O-])cc2)nc2ccc(O)cc12 | inactive: -19.9% | 
COc1cccc(C(=O)N2CCN(C3CCC(c4ccccc4)CC3)CC2)c1OC (stereo not given) |  | inconclusive [inhibitor, partial curve]
COCCNC(=O)CCc1c(C)nc2c(-c3ccc(F)cc3)c(C)nn2c1C |  | inconclusive [inhibitor, partial curve, poor fit]
CC(C)C(c1nnnn1Cc1ccco1)N1CCN(c2nc3ccccc3s2)CC1 (stereo not given) |  | inconclusive [inhibitor, partial curve]
COc1ccccc1NC(=O)Cc1noc(CSc2nnc(C)n2C)n1 | inactive: 0.672% | 
COc1ccc(C2c3c(ncn(CCN4CCOCC4)c3=N)Oc3ccc4ccccc4c32)cc1OC (stereo not given) |  | active: 1 µM
O=C(NCCC1=CCCCC1)c1ccc2c(c1)N(Cc1ccccc1)C(=O)CS2 |  | inconclusive [inhibitor, partial curve, poor fit]
CC(=O)N1N=C(c2ccncc2)OC1(Cc1ccccc1)Cc1ccccc1 |  | inconclusive [inhibitor, single point]
Cc1cccc(OCCCCc2c(C)n[nH]c2C)c1 |  | inconclusive [inhibitor, single point]
O=C(CNS(=O)(=O)c1ccc2ccccc2c1)OCc1nnc(-c2ccccc2)o1 |  | inconclusive [inhibitor, single point]
CCOc1ccc(NCc2nc3ccccc3n2CCOc2ccccc2)cc1 | inactive: -26.2% | 
N#Cc1cc2c(nc1SCC(=O)Nc1sc3c(c1C#N)CCC3)CCC2 |  | inconclusive [inhibitor, partial curve]
c1cc2c(cc1C1CCCCC1)c1c3n2CCCNC3CCC1 (stereo not given) |  | inconclusive [inhibitor, single point]
CCn1c2ccccc2c2nnc(SCc3ccc(C(=O)OC)o3)nc21 |  | inconclusive [inhibitor, single point]
CN(C)CCCN1C(=O)C(O)=C(C(=O)c2cc3ccccc3o2)C1c1ccccc1 (stereo not given) |  | inconclusive [activator, partial curve]
CCOC(=O)Cn1nnnc1CN(CCc1ccccc1)Cc1cc2cc(CC)ccc2[nH]c1=O |  | inconclusive [inhibitor, single point]
COc1ccc(C(=O)Oc2c(CN3CCOCC3)cc(Cl)c3cccnc23)cc1 | inactive: -13.3% [at 46.1 µM] | 
Cc1c(Cc2ccccc2)c(=O)oc2cc(O)ccc12 |  | inconclusive [inhibitor, single point]
CC(C)c1ccc(NC(=O)Cn2c(=O)oc3cccnc32)cc1 | inactive: -10.2% | 
Cc1sc2ncnc(Nc3ccccc3)c2c1C | inactive: -2.17% [at 46.1 µM] | 

Reference: PubChem BioAssay AID1461 (National Center for Advancing Translational Sciences (NCATS), 2008)
